{
  "source": "paper PMC12136788",
  "binders": {"B1": {"name": "ENSG00000198589:be:win_7251|CDS|ENSG00000198589|bound_else_gene|NA|bound_elsewhere_windowed (ssRNA)", "RNA": "GGGAGUUCUACAGUCCGACGAUCUGGCUAUAAACAGCAAGGACCAGAAGCUGUCCGAGCCCUCAAUGUGUUCUAUUACUUGACCUAUGAAGGAGCUGUCAAUCUGAAUUCAAUAACUGAUCCUGUGUUGAGAGAGGCUGUUGACAACAGAGGAUUGAGCAUCA"}, "B2": {"name": "chr1:68475836:68475940:-|3pUTR|ENSG00000024526|unk|total|mutant (ssRNA)", "RNA": "GGGAGUUCUACAGUCCGACGAUCAUGCCCAGGGCCUAACUUACACUAAUUAAAUCUGAAUUUUGGGGAUGUUGUACCGGGAUCCGUAUUUUUUUUAAUCCCGGUGAUUCCAAUAUUCAGCCAACUGUGAGAAUCAAUGGCCUACAACAGAGGAUUGAGCAUCA"}, "B3": {"name": "chr5:132696315:132696416:-|3pUTR|ENSG00000131437|msi1|total|mutant (ssRNA)", "RNA": "GGGAGUUCUACAGUCCGACGAUCGUUGUACUACUACUCUUCAAUUGUACUGUGCAGGGAAGUUGGGGGAACAGUUCAUACUACCGAGAGUUACAGUUCCGAUGUAUGUGUAAAUCGAUCCGCUAUUUAUCCAACUACUGUAUACAACAGAGGAUUGAGCAUCA"}, "B4": {"name": "ENSG00000087586:stop:overlap|stop_codon|ENSG00000087586|stop_codon|NA|stop_codon (ssRNA)", "RNA": "GGGAGUUCUACAGUCCGACGAUCCAGCAAAUUCAUCAAAACCAUCAAAUUGCCAAAACAAAGAAUCAGCUAGCAAACAGUCUUAGGAAUCGUGCAGGGGGAGAAAUCCUUGAGCCAGGGCUGCCAUAUAACCUGACAGGAACACAACAGAGGAUUGAGCAUCA"}, "B5": {"name": "chr18:2804133:2804242:+|3pUTR|ENSG00000101596|unk|FALSE|unique (ssRNA)", "RNA": "GGGAGUUCUACAGUCCGACGAUCGGUUAAAGAGAAAUGACUUUUUAGGAACUAGACUUGAACGUAUAAUUAAUAUGUGGAACUAGUUUGCUUUUAUAAUUCAUUGUAUCAAGAAGGAGUCAUGUUUUAAAUCCAAGGCAUUGACAACAGAGGAUUGAGCAUCA"}, "B6": {"name": "chr10:17237356:17237519:+|3pUTR|ENSG00000026025|msi1_unk|FALSE|overlapping (ssRNA)", "RNA": "GGGAGUUCUACAGUCCGACGAUCAGAUAGAUUUGGAAUAGGAAUAAGCUCUAGUUCUUAACAACCGACACUCCUACAAGAUUUAGAAAAAAGUUUACAACAUAAUCUAGUUUACAGAAAAAUCUUGUGCUAGAAUACUUUUUACAACAGAGGAUUGAGCAUCA"}, "B7": {"name": "chr8:103229222:103229323:+|3pUTR|ENSG00000164929|unk|FALSE|unique (ssRNA)", "RNA": "GGGAGUUCUACAGUCCGACGAUCUAAUUUUCUAGUAUGUCUUGAAACAUGUUCAUCUGGAAGUAUUUUCCUCCAAAGUAAUGUAGCAUGAUUUUUCAAGGAUUGUUAACAUGCCUGGGAUUGGGAAAGAUAGGACUAAAGUUGCAACAGAGGAUUGAGCAUCA"}, "B8": {"name": "chr1:94529602:94529703:-|3pUTR|ENSG00000117525|msi1|FALSE|unique (ssRNA)", "RNA": "GGGAGUUCUACAGUCCGACGAUCUGGAAGGAAAUUGGGUGCAUUUCUAGGACUUUUCUAACAUAUGUCUAUAAUAUAGUGUUUAGGUUCUUUUUUUUUUCAGGAAUACAUUUGGAAAUUCAAAACAAUUGGCAAACUUUGUAUCAACAGAGGAUUGAGCAUCA"}, "B9": {"name": "ENSG00000198589:be:win_1001|CDS|ENSG00000198589|bound_else_gene|NA|bound_elsewhere_windowed (ssRNA)", "RNA": "GGGAGUUCUACAGUCCGACGAUCUCAACACUAGCGAUACCUUUGACAAAUGUUUCCUGGGCUCAUCAGAAACAGCAGAUGCUAAUAGAGUAUUCUGUGGUCAGAUGACUGCAGUUUACCUUUUCAGUGAAGCUCUAAAUGCAGCAACAGAGGAUUGAGCAUCA"}, "B10": {"name": "chr5:90513983:90514084:+|3pUTR|ENSG00000113356|unk|FALSE|unique (ssRNA)", "RNA": "GGGAGUUCUACAGUCCGACGAUCAAAUACACUGAAGAUAAAGGUUAUUUCUUUUUUUAGCUUUGAAUUUGUCAUGACCAUUUUAGUCUUGCAGAUAGCAGGGCAGCCCCUUGGGGCAAGGAUUUACUCUGGGAGGUACCGUUACAACAGAGGAUUGAGCAUCA"}, "B11": {"name": "chr15:52550141:52550321:-|3pUTR|ENSG00000128989|msi1|total|mutant (ssRNA)", "RNA": "GGGAGUUCUACAGUCCGACGAUCAGAUGUCACUUCCGUAAAAUACCAAUUCCGUUUUACUUGUGGCUUAUCCCGUCCGAACUCCGCAGACUUUACUGGGACAAGUUUACUGCUCUUGCCGGAGCUCCUCUCACAAGCCGUUGUCAACAGAGGAUUGAGCAUCA"}, "B12": {"name": "ENSG00000136451:be:win_2001|3pUTR|ENSG00000136451|bound_else_gene|NA|bound_elsewhere_windowed (ssRNA)", "RNA": "GGGAGUUCUACAGUCCGACGAUCGCUAGUGUAGAAUUGUCUGUGUUUAUUGUUUUUAUGAGUAAAUACAUGCAUUGUCAUAAUAAAAUGCAUUUCAGAGAAUAUGCAUUUUACCUUUGGGAAUAUGUUAAUUUCAGGCAGCAUCAACAGAGGAUUGAGCAUCA"}, "B13": {"name": "chr2:25738620:25738721:-|3pUTR|ENSG00000143970|unk|FALSE|unique (ssRNA)", "RNA": "GGGAGUUCUACAGUCCGACGAUCAUACAUAUUAAUGACCUGACAGUUAACAUUCUGUUGUUUAUUAUUGCCUUUCUCCACCUUAGAGAGCCAUAAAUAACUCUCUGGUGAAGUGAUUUGCUAUAAUGGGGGUGAGGAGUGGGGCAACAGAGGAUUGAGCAUCA"}, "B14": {"name": "chrX:152166439:152166540:-|3pUTR|ENSG00000011677|unk|FALSE|unique (ssRNA)", "RNA": "GGGAGUUCUACAGUCCGACGAUCCACCACAAGCAGAUUCUCCCUGCCCACCGGCUGAACAAAGCUCCUAAGGGGUGUAUCAUUAGCUGCUGGUUGCCUUUUCAUCCAUCCUUUCCCCGUCCCCUGCUUCCUUGCCAUUGCUGGCAACAGAGGAUUGAGCAUCA"}, "B15": {"name": "chr14:53038166:53038268:-|3pUTR|ENSG00000100523|unk|total|mutant (ssRNA)", "RNA": "GGGAGUUCUACAGUCCGACGAUCGAGCUUUUGGCAGAGUCUUCGGGGUUUUCCCGGUAUAAAAUCAUAUCAGCGAAGAGAGCCCGUUUGAUUUCUUUUCCCAGUUGGAUGCCUUUUAUUUAUUUCUCUUGCCUGAUUGCUCUACAACAGAGGAUUGAGCAUCA"}, "B16": {"name": "chr2:235053981:235054083:+|3pUTR|ENSG00000130147|unk|total|mutant (ssRNA)", "RNA": "GGGAGUUCUACAGUCCGACGAUCCUCCUCCAUCGAGGGAGAGGCCUGAAGGGACUGCCUACUGCAGCUCGUUGCCAAUCACACCGCUUUCUAUUUGUUAAGUAUAAAUUUAAAUUUAAAAUCACUUUUUUAACGAAUGGGGGGCAACAGAGGAUUGAGCAUCA"}, "B17": {"name": "ENSG00000165868:stop:overlap|stop_codon|ENSG00000165868|stop_codon|NA|stop_codon (ssRNA)", "RNA": "GGGAGUUCUACAGUCCGACGAUCAGCAGCCGGCCAAGCAGUUCAUGAGACAAGCUGCCUACCAGGCGGACCCUAUGGAUCUUUAGGAGUAGAUUAUGAGUUCGAAAAACUUCUGUAUAAAAUAUUUGGAGAGGAUUUUAUUGACAACAGAGGAUUGAGCAUCA"}, "B18": {"name": "chr9:114377124:114377225:-|CDS|ENSG00000106948|msi1|FALSE|unique (ssRNA)", "RNA": "GGGAGUUCUACAGUCCGACGAUCUCCGUUGAACUCAGCCCGGCAAGGUCCUGGAGCAGUGGGACAGUGAGCCUCGACCACCCUAGUGACAGCCUUGAUUCUACCUGGGAAGGAGAGACCGAUGGCCCCCAGCCCACUGCCCUGCAACAGAGGAUUGAGCAUCA"}, "B19": {"name": "ENSG00000096070:stop:overlap|stop_codon|ENSG00000096070|stop_codon|NA|stop_codon (ssRNA)", "RNA": "GGGAGUUCUACAGUCCGACGAUCAGAAGGAUCCUGCACACAUCUUCGCAGAACCAGUCAACUUGAGUGAGGUUUUAUAUGUUUAGGUUCCAGAUUACCUGGAAUUCAUAUCCAAGCCAAUGGAUUUUUCUACUAUGAGGCGGACAACAGAGGAUUGAGCAUCA"}, "B20": {"name": "chr8:143803364:143803465:-|CDS|ENSG00000180900|msi1|FALSE|unique (ssRNA)", "RNA": "GGGAGUUCUACAGUCCGACGAUCACCCUCACCGUGCUGGUCUGUGACGGCUUUGAGGCCAGCACCGACGCAGCCCUGGAGGUUAGCGAUCCCGCCCCGGGGACCGGGCCUCCCUCUGGCCCAGCCCAAGGUGUUGUGAGCCGCCAACAGAGGAUUGAGCAUCA"}, "B21": {"name": "chr7:7607225:7607326:+|3pUTR|ENSG00000164654|msi1|FALSE|bound_elsewhere (ssRNA)", "RNA": "GGGAGUUCUACAGUCCGACGAUCUUUGAGUGAUUUUGAUAUGCUUCACAGAGACAAAUGCUGCCAAAAUAAACAUCGAAGUAUAGACAUGAGUUCUGUUCAGCAGGUUGAAAAGUCUGAUUUAGAAAAACUUUCUAAGUUUUGCAACAGAGGAUUGAGCAUCA"}, "B22": {"name": "chr6:13639604:13639705:-|CDS|ENSG00000010017|unk|FALSE|unique (ssRNA)", "RNA": "GGGAGUUCUACAGUCCGACGAUCGAUAGUGAAGUACGAUGUUUGGGAGGCCGAAGUCCAAAGUCUCAAGACAGUUAUCCUGUUAGUCCUCGACCUUUUAGUAGUCCAAGUAUGAGCCCCAGCCAUGGAAUGAAUAUCCACAAUCAACAGAGGAUUGAGCAUCA"}},
  "note": "The other results are listed elsewhere or left out.",
  "data": [
    {"target": "T1, UNK ZnF1-6 (called full-length) (human, UniProt Q9C0B0 30-357)", "T1 sequence": "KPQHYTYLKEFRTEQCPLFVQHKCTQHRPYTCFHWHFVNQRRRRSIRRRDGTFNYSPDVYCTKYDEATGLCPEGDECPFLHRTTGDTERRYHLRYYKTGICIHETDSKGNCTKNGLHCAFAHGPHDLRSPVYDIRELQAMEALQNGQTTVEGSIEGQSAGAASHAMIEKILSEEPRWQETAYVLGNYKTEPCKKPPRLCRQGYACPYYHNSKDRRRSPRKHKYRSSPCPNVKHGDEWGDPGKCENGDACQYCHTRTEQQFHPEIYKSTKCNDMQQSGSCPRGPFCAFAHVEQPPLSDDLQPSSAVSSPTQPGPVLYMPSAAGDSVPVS", "experiment": "nsRBNS (natural sequence RNA bind-n-seq); RBNS binding buffer (assumed for nsRBNS): 25 mM Tris pH 7.5, 150 mM KCl, 3 mM MgCl2, 0.01% Triton X-100, 500 ug/ml BSA, 20 U/ml SUPERase-In, 4 C; UNK is unkempt and MSI1 is Musashi-1; names of the RNAs are library labels; protein concentration not given here; high values mean tight binding", "units": {"binding signal": "enrichment R"}, "values": [
      {"binder": "B1", "binding signal": 0.511},
      {"binder": "B2", "binding signal": 0.698},
      {"binder": "B3", "binding signal": 0.813},
      {"binder": "B4", "binding signal": 0.534},
      {"binder": "B5", "binding signal": 0.789},
      {"binder": "B6", "binding signal": 7.53},
      {"binder": "B7", "binding signal": 0.574},
      {"binder": "B8", "binding signal": 10},
      {"binder": "B9", "binding signal": 0.527},
      {"binder": "B10", "binding signal": 0.761},
      {"binder": "B11", "binding signal": 0.541},
      {"binder": "B12", "binding signal": 0.983},
      {"binder": "B13", "binding signal": 0.823},
      {"binder": "B14", "binding signal": 0.93},
      {"binder": "B15", "binding signal": 0.454},
      {"binder": "B16", "binding signal": 0.776},
      {"binder": "B17", "binding signal": 0.728},
      {"binder": "B18", "binding signal": 1.01},
      {"binder": "B19", "binding signal": 0.627},
      {"binder": "B20", "binding signal": 0.519},
      {"binder": "B21", "binding signal": 0.411},
      {"binder": "B22", "binding signal": 1.17}
    ]}
  ]
}
